The source of these data is paper PMC3812274 (Biochemistry, 2013).

The target of test [1] is N-terminal SNARE motif of human SNAP-25B (residues 11-82) (human, UniProt P60880-1 11-82). In words: assembly of an SDS-resistant complex.
The target in test [2] is C-terminal SNARE motif of human SNAP-25B (residues 141-203) (human, UniProt P60880-1 in part). In words: assembly of an SDS-resistant complex.

B1: SNARE motif of rat syntaxin-1A ([…]) (domain or fragment)
chain: not shown
On to B1, for which the binding result in test [1] and in test [2] was “binds” in each case.
